{"source": "PubChem BioAssay AID686978", "about": "(National Center for Advancing Translational Sciences (NCATS), 2013)", "note": "About 64,000 (15%) of roughly 420,000 compounds were called active. Inconclusive means that the source gave no clear call. Such entries were picked first, then a sample of the others. The call rests on the fitted dose curve; in most records, active means well fitted inhibition curve with a large enough effect; inconclusive means small, poorly fitted or top-dose-only effect; inactive means flat fitted curve, though single readings scatter. Potencies of inconclusive entries are left out as doubtful fits. On the % scale 0 is the no-effect control and ±100 the full control effect; potency means the concentration at half of the fitted maximal effect; tags describe the fitted curve by direction and shape."}
{"experiment": "qHTS for Inhibitors of human tyrosyl-DNA phosphodiesterase 1 (TDP1): qHTS in cells in absence of CPT; further: nearly all actives have a fitted effect of over 55% in size", "conditions": "DT40 Tdp1-/- hTDP1 cells, no CPT, ATP luminescence, 48 h; activity change, negative = growth inhibition: at 46.2 µM (top of the series) unless noted", "how_it_was_run": "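No-CPT arm: Tdp1-/-;hTDP1 DT40 cells (400/well) plus compounds, incubated ≥48 hr at 37 °C. Readout CellTiter-Glo luminescence.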"}
{"compound": "Cc1ccc(C(=O)NCCn2cc(SCC(=O)Nc3nnc(C)s3)c3ccccc32)cc1", "Potency": "inconclusive [inhibitor, single point]"}
{"compound": "Fc1ccccc1/C=N/n1cnnc1", "activity change, negative = growth inhibition": "inactive: 0.791%"}
{"compound": "Cc1cccc(C)c1-n1nnnc1C1(C)CCC(=O)N1CC(F)(F)F", "note": "(centres undefined)", "Potency": "inconclusive [inhibitor, single point]"}
{"compound": "CCc1nn2cc(C(=O)c3cc(C)ccc3O)cnc2c1-c1ccc(F)cc1", "Potency": "inconclusive [inhibitor, single point]"}
{"compound": "c1ccc(C[n+]2c(-c3ccccc3)csc2Nc2ccccc2)cc1", "Potency": "inconclusive [inhibitor, single point]"}
{"compound": "Oc1ccccc1N1CCN(c2nc(-c3cccs3)nc3ccccc23)CC1", "Potency": "inconclusive [inhibitor, single point]"}
{"compound": "O=c1/c(=C/c2ccccc2)sc2nnc(-c3cccs3)n12", "Potency": "inconclusive [inhibitor, partial curve]"}
{"compound": "CCC(Oc1ccc(F)cc1)C(=O)Nc1c(C(=O)c2ccc(C)cc2)oc2ccccc12", "note": "(centres undefined)", "activity change, negative = growth inhibition": "inactive: -22.8%"}
{"compound": "Cc1ccc(C(=O)Nc2ccc(S(=O)(=O)N3CCCC3)cc2)cc1", "Potency": "inconclusive [inhibitor, single point]"}
{"compound": "COc1ccc(Nc2cc3n(c(=O)n2)CCc2cc(OC)c(OC)cc2-3)cc1", "Potency": "inconclusive [inhibitor, single point]"}
{"compound": "O=C(Nc1ccc(N2CCOCC2)cc1N1CCOCC1)c1ccco1", "Potency": "inconclusive [inhibitor, single point]"}
{"compound": "Cc1ccc(C(=O)CSc2nnc(CNc3ccc(C)cc3C)n2Cc2ccco2)cc1", "Potency": "inconclusive [inhibitor, single point]"}
{"compound": "COc1cccc(-c2nc3ccc(C(=O)NC(C)Cc4cccnc4)cc3o2)c1", "note": "(centres undefined)", "Potency": "inconclusive [inhibitor, single point]"}
{"compound": "COc1ccc(-c2nc3scc(CCNS(=O)(=O)c4ccc(F)cc4C)n3n2)cc1", "Potency": "active: 16.4 µM"}
{"compound": "CC(=O)c1cccc(N(CC(=O)NCCc2ccccc2)C(=O)c2csnn2)c1", "Potency": "inconclusive [inhibitor, partial curve, poor fit]"}
{"compound": "COc1ccc(NC(=O)CS(=O)c2ccc(Cl)c(Cl)c2)cc1", "note": "(centres undefined)", "activity change, negative = growth inhibition": "inactive: -12.9%"}
{"compound": "CCOc1ccccc1NC(=O)c1ccc(S(=O)(=O)N2CCCCC2)cc1", "activity change, negative = growth inhibition": "inactive: -17.1%"}
{"compound": "S=c1[nH]nc(C2CCCCC2)n1/N=C/c1ccc(Cl)cc1", "Potency": "inconclusive [inhibitor, single point]"}
{"compound": "COC(=O)c1cc2oc3ccccc3c2n1Cc1ccc(Cl)cc1", "Potency": "inconclusive [inhibitor, partial curve]"}
